# Source: the supplement of paper PMC10126150
# Values marked as one replicate rest on one cluster of the flow cell; about a third of the high ones do not repeat.
# System: ATP
# Assay: switch fluorescence ratio, 500 uM ATP over buffer (Cy3 cluster intensity, sum of 5 cycles each) (fold (ratio)); higher = stronger signal-on switching upon ATP binding; sequences stand for … in TCGTCGGCAGCGTCAGATGTGTATAAGAGACAGTTTTTTTTTTTTTTTTTTTTTTTTT…TC
# Conditions: aptamer strand: ATP DNA aptamer (quencher-CACCTGGGGGAGTATTGCGGAGGAAGG + anchor), 100 nM annealed; ATP concentration: 500 uM; one replicate
# Outline: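 Imaging in selection buffer was followed by imaging after 15 min with 500 uM ATP at 22 °C, for Cy3-labelled switching-strand clusters annealed to 100 nM quencher-labelled ATP aptamer on a modified Illumina MiSeq flow-cell. Five of these buffer/ATP cycles ran, separated by NaOH stripping and re-annealing. The fluorescence ratio per cluster is summed target-cycle over summed buffer-cycle Cy3 intensity, averaged per switch-domain sequence; clusters outside 100-1000 RFU were removed.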
# 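Further: ATP exposure 15 min at 22 °C before imaging.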
row,Sequence,switch fluorescence ratio
1,TTTTAGCGG,1.01
2,TTTTAGGGA,1.03
3,TTTTAGGTTG,0.984
4,TTTTATAAAC,0.997
5,TTTTATACTG,1.06
6,TTTTATGAA,0.969
7,TTTTATGG,0.965
8,TTTTATTCGC,0.995
9,TTTTATTTAG,0.964
10,TTTTCAGTCT,1.04
11,TTTTCCACT,1.04
12,TTTTCCTTGG,0.999
13,TTTTCGCGGC,1.11
14,TTTTCGGGCC,1.02
15,TTTTCGTACT,1.05
16,TTTTCTACTA,0.996
17,TTTTCTATCC,1.06
18,TTTTGAATG,1.07
19,TTTTGAGAAC,1.01
20,TTTTGAGACA,1.02

row,Sequence,switch fluorescence ratio
1,TTTTGCAAGG,0.987
2,TTTTGCAGTC,1.28
3,TTTTGCGACT,1.02
4,TTTTGCGAGT,0.959
5,TTTTGGCCCG,1.03
6,TTTTGGGC,0.98
7,TTTTGTACTT,1.03
8,TTTTGTAGTC,1
9,TTTTGTCAGC,1.02
10,TTTTGTCTAG,1
11,TTTTGTGTGT,1.03
12,TTTTGTTCGA,1.01
13,TTTTTACGCT,0.969
14,TTTTTACTCT,0.964
15,TTTTTAGCGG,1.02
16,TTTTTCACAC,0.982
17,TTTTTCGCAT,2.18
18,TTTTTGACAA,0.992
19,TTTTTGAGTC,0.905
20,TTTTTTACAA,1.05
